Experimental data taken from the supplement of paper PMC10369915.
The other results are listed elsewhere or left out. No stated cut-off is given here; in the data, active = 3.2 or more and inactive = the rest. The signal is at background level for most entries.

Legend:
Test in all cases: enrichment score (SH2-bound / input frequency) (ratio); bacterial display of known human phosphotyrosine sites (pTyr-Var adds point mutants) read by sequencing; higher = stronger binding; tyrosines were phosphorylated by kinases first
Conditions in all cases: peptide library: pTyr-Var
SHP2 C-SH2 domain E139D = molecular target: SHP2 C-SH2 domain E139D
[1] = molecular target: SHP2 C-SH2 domain wild-type
SHP2 N-SH2 domain L43F = molecular target: SHP2 N-SH2 domain L43F
SHP2 N-SH2 domain T42A = molecular target: SHP2 N-SH2 domain T42A
SHP2 N-SH2 domain T52S = molecular target: SHP2 N-SH2 domain T52S
[2] = molecular target: SHP2 N-SH2 domain wild-type

Measured: enrichment score
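Further: displayed peptides selected on beads carrying the immobilized SH2 domain, with library peptides lacking any tyrosine serving as negative controls.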

DRLASSLDKVR [KRT10_Y160_Y160S]
inactive: SHP2 C-SH2 domain E139D 0.88 | [1] 0.603 | SHP2 N-SH2 domain L43F 0.888 | SHP2 N-SH2 domain T42A 0.533 | SHP2 N-SH2 domain T52S 0.69 | [2] 0.917

ASQEEYSAMRD [KRAS_Y64_G60S]
inactive: SHP2 C-SH2 domain E139D 0.529 | [1] 0.781 | SHP2 N-SH2 domain L43F 0.5 | SHP2 N-SH2 domain T42A 0.398 | SHP2 N-SH2 domain T52S 0.533 | [2] 0.579

LEVETYRRLLD [KRT12_Y429_I426V]
inactive: SHP2 C-SH2 domain E139D 0.736 | [1] 0.815 | SHP2 N-SH2 domain L43F 0.812 | SHP2 N-SH2 domain T42A 0.678 | SHP2 N-SH2 domain T52S 0.869 | [2] 0.848

KILTHYKQPHT [KMT2D_Y5349_R5351Q]
inactive: SHP2 C-SH2 domain E139D 1.32 | [1] 1.14 | SHP2 N-SH2 domain L43F 1.33 | SHP2 N-SH2 domain T42A 1.07 | SHP2 N-SH2 domain T52S 1.3 | [2] 1.18

SGGSSYGSGGC [KRT1_Y532_G537C]
inactive: SHP2 C-SH2 domain E139D 0.613 | [1] 0.843 | SHP2 N-SH2 domain L43F 0.595 | SHP2 N-SH2 domain T42A 0.515 | SHP2 N-SH2 domain T52S 0.662 | [2] 0.788

SYTDPYAQPSL [KMT2D_Y2378_P2382S]
inactive: SHP2 C-SH2 domain E139D 0.736 | [1] 0.659 | SHP2 N-SH2 domain L43F 0.728 | SHP2 N-SH2 domain T42A 0.649 | SHP2 N-SH2 domain T52S 0.718 | [2] 0.747

DRPASYLEKVR [KRT13_Y118_L115P]
inactive: SHP2 C-SH2 domain E139D 0.705 | [1] 0.709 | SHP2 N-SH2 domain L43F 0.67 | SHP2 N-SH2 domain T42A 0.779 | SHP2 N-SH2 domain T52S 0.817 | [2] 0.737

DCLASYLDKVR [KRT10_Y160_R156C]
inactive: SHP2 C-SH2 domain E139D 1.07 | [1] 1.04 | SHP2 N-SH2 domain L43F 1.03 | SHP2 N-SH2 domain T42A 0.891 | SHP2 N-SH2 domain T52S 0.954 | [2] 1.05

TIEDSYRKQVV [KRAS_Y40]
inactive: SHP2 C-SH2 domain E139D 0.512 | [1] 0.673 | SHP2 N-SH2 domain L43F 0.648 | SHP2 N-SH2 domain T42A 0.501 | SHP2 N-SH2 domain T52S 0.754 | [2] 0.706

STGWSYAGVAV [KLHL3_Y577_R575W]
inactive: SHP2 C-SH2 domain E139D 0.715 | [1] 0.691 | SHP2 N-SH2 domain L43F 0.865 | SHP2 N-SH2 domain T42A 0.76 | SHP2 N-SH2 domain T52S 0.726 | [2] 0.946

GGMTEYKLVVV [KRAS_Y4]
inactive: SHP2 C-SH2 domain E139D 1.26 | [1] 1.44 | SHP2 N-SH2 domain L43F 1.03 | SHP2 N-SH2 domain T42A 1.95 | SHP2 N-SH2 domain T52S 1.16 | [2] 0.956

DPLASYLDKVR [KRT10_Y160_R156P]
inactive: SHP2 C-SH2 domain E139D 0.81 | [1] 0.791 | SHP2 N-SH2 domain L43F 0.718 | SHP2 N-SH2 domain T42A 0.658 | SHP2 N-SH2 domain T52S 0.843 | [2] 0.73

TKVVHYRKWIK [KLK2_Y249]
inactive: SHP2 C-SH2 domain E139D 0.902 | [1] 0.739 | SHP2 N-SH2 domain L43F 0.654 | SHP2 N-SH2 domain T42A 0.611 | SHP2 N-SH2 domain T52S 0.647 | [2] 0.973

VLRQVYVDFEG [KMT2B_Y1707_R1705Q]
inactive: SHP2 C-SH2 domain E139D 1.65 | [1] 1.49 | SHP2 N-SH2 domain L43F 1.54 | SHP2 N-SH2 domain T42A 1.64 | SHP2 N-SH2 domain T52S 1.8 | [2] 1.99

HFVDEYDPTIE [KRAS_Y32]
inactive: SHP2 C-SH2 domain E139D 0.555 | [1] 0.585 | SHP2 N-SH2 domain L43F 0.59 | SHP2 N-SH2 domain T42A 0.656 | SHP2 N-SH2 domain T52S 0.949 | [2] 0.783

PRARTYCFKQE [KLHDC9_Y175_S171R_YF]
inactive: SHP2 C-SH2 domain E139D 1.02 | [1] 1.13 | SHP2 N-SH2 domain L43F 1.23 | SHP2 N-SH2 domain T42A 0.794 | SHP2 N-SH2 domain T52S 0.9 | [2] 0.955

GRQWNYVASMS [KLHL4_Y552]
inactive: SHP2 C-SH2 domain E139D 1.2 | [1] 1.13 | SHP2 N-SH2 domain L43F 1.06 | SHP2 N-SH2 domain T42A 1.27 | SHP2 N-SH2 domain T52S 1.15 | [2] 1.25

PSARTYCYKQE [KLHDC9_Y175]
inactive: SHP2 C-SH2 domain E139D 1.03 | [1] 0.714 | SHP2 N-SH2 domain L43F 0.783 | SHP2 N-SH2 domain T42A 0.514 | SHP2 N-SH2 domain T52S 0.6 | [2] 0.752

GGMTEYNLVVV [KRAS_Y4_K5N]
inactive: SHP2 C-SH2 domain E139D 0.796 | [1] 0.924 | SHP2 N-SH2 domain L43F 0.749 | SHP2 N-SH2 domain T42A 0.793 | SHP2 N-SH2 domain T52S 0.649 | [2] 1.15

RLRKYHLGKYL [KLB_Y906_Y906H]
inactive: SHP2 C-SH2 domain E139D 0.23 | [1] 0.26 | SHP2 N-SH2 domain L43F 0.255 | SHP2 N-SH2 domain T42A 0.245 | SHP2 N-SH2 domain T52S 0.259 | [2] 0.316

KEELDYLKKNH [KRT14_Y248_A247D]
inactive: SHP2 C-SH2 domain E139D 1.01 | [1] 1.18 | SHP2 N-SH2 domain L43F 0.83 | SHP2 N-SH2 domain T42A 0.929 | SHP2 N-SH2 domain T52S 0.932 | [2] 1.09

DRLASYLDKAR [KRT14_Y129_V133A]
inactive: SHP2 C-SH2 domain E139D 0.838 | [1] 0.957 | SHP2 N-SH2 domain L43F 1.13 | SHP2 N-SH2 domain T42A 0.88 | SHP2 N-SH2 domain T52S 0.79 | [2] 0.871

VVKTVYSLQPP [KNSTRN_Y87]
inactive: SHP2 C-SH2 domain E139D 1.25 | [1] 1.01 | SHP2 N-SH2 domain L43F 0.887 | SHP2 N-SH2 domain T42A 0.697 | SHP2 N-SH2 domain T52S 0.745 | [2] 1.12

KEELAYLKKNH [KRT14_Y248]
inactive: SHP2 C-SH2 domain E139D 0.761 | [1] 0.656 | SHP2 N-SH2 domain L43F 0.563 | SHP2 N-SH2 domain T42A 0.886 | SHP2 N-SH2 domain T52S 0.764 | [2] 1

RLRKYYLGKYL [KLB_Y906]
inactive: SHP2 C-SH2 domain E139D 0.309 | [1] 0.25 | SHP2 N-SH2 domain L43F 0.321 | SHP2 N-SH2 domain T42A 0.168 | SHP2 N-SH2 domain T52S 0.234 | [2] 0.266

PTQLPYDHKWK [KIT_Y578_E583K]
inactive: SHP2 C-SH2 domain E139D 0.841 | [1] 0.706 | SHP2 N-SH2 domain L43F 0.68 | SHP2 N-SH2 domain T42A 0.627 | SHP2 N-SH2 domain T52S 0.663 | [2] 0.95

DTLASYLDKVR [KRT12_Y139_R135T]
inactive: SHP2 C-SH2 domain E139D 1.32 | [1] 0.861 | SHP2 N-SH2 domain L43F 1.25 | SHP2 N-SH2 domain T42A 1.19 | SHP2 N-SH2 domain T52S 1.17 | [2] 1.2

ENQEIYRKAFD [KPNA1_Y493_Q494R]
inactive: SHP2 C-SH2 domain E139D 0.537 | [1] 0.559 | SHP2 N-SH2 domain L43F 0.508 | SHP2 N-SH2 domain T42A 0.561 | SHP2 N-SH2 domain T52S 0.57 | [2] 0.816

NYAKMYCNPDA [KNL1_Y489]
inactive: SHP2 C-SH2 domain E139D 0.951 | [1] 0.954 | SHP2 N-SH2 domain L43F 0.816 | SHP2 N-SH2 domain T42A 0.537 | SHP2 N-SH2 domain T52S 0.722 | [2] 0.736

LEIETDRRLLD [KRT12_Y429_Y429D]
inactive: SHP2 C-SH2 domain E139D 0.591 | [1] 0.692 | SHP2 N-SH2 domain L43F 0.546 | SHP2 N-SH2 domain T42A 0.497 | SHP2 N-SH2 domain T52S 0.899 | [2] 0.7

FHLGKYLQEVL [KLB_Y910_Y906H_YF]
inactive: SHP2 C-SH2 domain E139D 1.13 | [1] 1.27 | SHP2 N-SH2 domain L43F 0.919 | SHP2 N-SH2 domain T42A 1.33 | SHP2 N-SH2 domain T52S 1.17 | [2] 1.49

KNDSKYVVKGN [KIT_Y823_N822K]
inactive: SHP2 C-SH2 domain E139D 0.625 | [1] 0.633 | SHP2 N-SH2 domain L43F 0.595 | SHP2 N-SH2 domain T42A 0.497 | SHP2 N-SH2 domain T52S 0.565 | [2] 0.711

ARQEEYSAMRD [KRAS_Y64_G60R]
inactive: SHP2 C-SH2 domain E139D 0.65 | [1] 0.656 | SHP2 N-SH2 domain L43F 0.567 | SHP2 N-SH2 domain T42A 0.388 | SHP2 N-SH2 domain T52S 0.598 | [2] 0.371

KNDSIYVVKGN [KIT_Y823_N822I]
inactive: SHP2 C-SH2 domain E139D 0.597 | [1] 0.496 | SHP2 N-SH2 domain L43F 0.506 | SHP2 N-SH2 domain T42A 0.392 | SHP2 N-SH2 domain T52S 0.566 | [2] 0.677

NYSKMYCNPDA [KNL1_Y489_A486S]
inactive: SHP2 C-SH2 domain E139D 0.483 | [1] 0.59 | SHP2 N-SH2 domain L43F 0.688 | SHP2 N-SH2 domain T42A 0.642 | SHP2 N-SH2 domain T52S 0.438 | [2] 0.64

LEIETYRRLLD [KRT12_Y429]
inactive: SHP2 C-SH2 domain E139D 0.978 | [1] 0.777 | SHP2 N-SH2 domain L43F 0.823 | SHP2 N-SH2 domain T42A 0.873 | SHP2 N-SH2 domain T52S 0.614 | [2] 0.842

PRARTYCYKQE [KLHDC9_Y175_S171R]
inactive: SHP2 C-SH2 domain E139D 0.448 | [1] 0.635 | SHP2 N-SH2 domain L43F 0.561 | SHP2 N-SH2 domain T42A 0.635 | SHP2 N-SH2 domain T52S 0.483 | [2] 0.448
